Holding throughout (assay): co-IP
In experiment [1] the target is DDX3, in vitro translated (UniProt O00571).
In experiment [2] the target is T1, Myc-tagged TAB2, in vitro translated (UniProt Q9NYJ8).
T1 sequence: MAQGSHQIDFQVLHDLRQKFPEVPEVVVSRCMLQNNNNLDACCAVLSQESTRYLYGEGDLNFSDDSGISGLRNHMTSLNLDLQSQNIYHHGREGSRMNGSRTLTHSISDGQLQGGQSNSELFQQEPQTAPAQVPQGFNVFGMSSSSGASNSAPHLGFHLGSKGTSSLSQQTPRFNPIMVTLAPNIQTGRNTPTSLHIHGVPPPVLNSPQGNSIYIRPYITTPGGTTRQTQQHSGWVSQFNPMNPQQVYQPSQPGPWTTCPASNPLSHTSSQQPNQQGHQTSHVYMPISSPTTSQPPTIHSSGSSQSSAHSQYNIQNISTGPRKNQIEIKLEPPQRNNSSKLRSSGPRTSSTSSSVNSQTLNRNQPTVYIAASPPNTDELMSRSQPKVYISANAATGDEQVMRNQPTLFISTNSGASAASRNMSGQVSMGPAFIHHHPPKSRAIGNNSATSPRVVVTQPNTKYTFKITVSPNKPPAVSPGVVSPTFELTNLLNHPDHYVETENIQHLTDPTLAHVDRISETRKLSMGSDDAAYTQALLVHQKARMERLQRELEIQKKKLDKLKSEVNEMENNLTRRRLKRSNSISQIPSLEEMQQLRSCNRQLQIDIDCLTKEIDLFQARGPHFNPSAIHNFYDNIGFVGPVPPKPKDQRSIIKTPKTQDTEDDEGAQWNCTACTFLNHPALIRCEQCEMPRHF

The target in experiment [3] is FLAG-tagged, codon-optimised vaccinia virus protein K7 (vaccinia virus) (UniProt P68466).
Experiment [4] has as its target HA-tagged K7 expressed from vaccinia virus vHA-K7 (vaccinia virus strain Western Reserve) (UniProt P68466).
The target in experiment [5] is FLAG-tagged K7, in vitro translated (vaccinia virus) (UniProt P68466).
The target in experiment [6] is T2, Myc-tagged human Spir-2 (human) (UniProt Q8WWL2).
T2 sequence: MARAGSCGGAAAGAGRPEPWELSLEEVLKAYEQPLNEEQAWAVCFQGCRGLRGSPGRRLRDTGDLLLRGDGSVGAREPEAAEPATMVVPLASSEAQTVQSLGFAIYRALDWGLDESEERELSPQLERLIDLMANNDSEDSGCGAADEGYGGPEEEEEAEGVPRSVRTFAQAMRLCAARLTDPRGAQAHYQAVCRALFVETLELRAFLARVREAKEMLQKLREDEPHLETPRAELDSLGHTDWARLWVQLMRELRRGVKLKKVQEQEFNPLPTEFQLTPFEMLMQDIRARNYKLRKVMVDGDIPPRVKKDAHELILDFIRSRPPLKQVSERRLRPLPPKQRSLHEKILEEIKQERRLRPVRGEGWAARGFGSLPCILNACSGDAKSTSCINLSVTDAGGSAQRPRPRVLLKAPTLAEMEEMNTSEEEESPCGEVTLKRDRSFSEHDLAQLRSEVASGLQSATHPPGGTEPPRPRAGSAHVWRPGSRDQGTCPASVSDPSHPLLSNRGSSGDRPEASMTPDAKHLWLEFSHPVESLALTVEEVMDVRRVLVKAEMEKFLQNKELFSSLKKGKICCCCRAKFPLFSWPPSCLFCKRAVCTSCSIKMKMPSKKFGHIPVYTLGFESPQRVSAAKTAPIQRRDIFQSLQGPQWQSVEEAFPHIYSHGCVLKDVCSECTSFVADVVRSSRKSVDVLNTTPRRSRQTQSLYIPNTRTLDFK

The target in another experiment is Myc-tagged β-TrCP (UniProt Q9Y297).
Experiment [7] addresses FLAG-tagged K7, in vitro translated (vaccinia virus) (UniProt P68466). This is another data set of the same source.
The target of experiment [8] is FLAG-tagged, codon-optimised vaccinia virus protein K7 (vaccinia virus) (UniProt P68466). The source holds these as a separate data set.

Where two headings read alike, the source gives them in different places. These are yes or no findings as the source states them, for the method shown. Binding seen in cells or lysates may run through a third protein. Some entries that bind do so weakly or less than the wild type. For some of these results: Sequences can lack the tags named with a protein.

The values below come from paper PMC8870497.

With “FLAG-tagged K7, in vitro translated (from UniProt P68466 1-149)”, the figures for the binding entry in experiment [1] and in experiment [2] were “binds” and “no binding”, respectively.
With “HA-tagged DDX3 (from UniProt O00571 1-662)”, in experiment [3], the binding entry is recorded as “binds”.
Consider “endogenous DDX3 (from UniProt O00571 1-662)”, for which the binding result in experiment [4] is on record as “binds”.
On to “Myc-tagged β-TrCP (from UniProt Q9Y297 1-605)”, for which the binding result in experiment [3] was “no binding”.
For the molecule “DDX3, in vitro translated (from UniProt O00571 1-662)”, the binding result in experiment [5] was “binds”.
Regarding “FLAG-tagged, codon-optimised vaccinia virus protein K7 (from UniProt P68466 1-149)”, the binding entry (in experiment [6]; with Myc-tagged β-TrCP) was “no binding” throughout.

B1: Myc-tagged TAB2, in vitro translated (protein, UniProt Q9NYJ8 1-693)
chain: MAQGSHQIDFQVLHDLRQKFPEVPEVVVSRCMLQNNNNLDACCAVLSQESTRYLYGEGDLNFSDDSGISGLRNHMTSLNLDLQSQNIYHHGREGSRMNGSRTLTHSISDGQLQGGQSNSELFQQEPQTAPAQVPQGFNVFGMSSSSGASNSAPHLGFHLGSKGTSSLSQQTPRFNPIMVTLAPNIQTGRNTPTSLHIHGVPPPVLNSPQGNSIYIRPYITTPGGTTRQTQQHSGWVSQFNPMNPQQVYQPSQPGPWTTCPASNPLSHTSSQQPNQQGHQTSHVYMPISSPTTSQPPTIHSSGSSQSSAHSQYNIQNISTGPRKNQIEIKLEPPQRNNSSKLRSSGPRTSSTSSSVNSQTLNRNQPTVYIAASPPNTDELMSRSQPKVYISANAATGDEQVMRNQPTLFISTNSGASAASRNMSGQVSMGPAFIHHHPPKSRAIGNNSATSPRVVVTQPNTKYTFKITVSPNKPPAVSPGVVSPTFELTNLLNHPDHYVETENIQHLTDPTLAHVDRISETRKLSMGSDDAAYTQALLVHQKARMERLQRELEIQKKKLDKLKSEVNEMENNLTRRRLKRSNSISQIPSLEEMQQLRSCNRQLQIDIDCLTKEIDLFQARGPHFNPSAIHNFYDNIGFVGPVPPKPKDQRSIIKTPKTQDTEDDEGAQWNCTACTFLNHPALIRCEQCEMPRHF
On to B1, for which, in [7], the binding entry is listed as “no binding”.

B2: Myc-tagged human Spir-2 (protein, UniProt Q8WWL2 1-714)
chain: MARAGSCGGAAAGAGRPEPWELSLEEVLKAYEQPLNEEQAWAVCFQGCRGLRGSPGRRLRDTGDLLLRGDGSVGAREPEAAEPATMVVPLASSEAQTVQSLGFAIYRALDWGLDESEERELSPQLERLIDLMANNDSEDSGCGAADEGYGGPEEEEEAEGVPRSVRTFAQAMRLCAARLTDPRGAQAHYQAVCRALFVETLELRAFLARVREAKEMLQKLREDEPHLETPRAELDSLGHTDWARLWVQLMRELRRGVKLKKVQEQEFNPLPTEFQLTPFEMLMQDIRARNYKLRKVMVDGDIPPRVKKDAHELILDFIRSRPPLKQVSERRLRPLPPKQRSLHEKILEEIKQERRLRPVRGEGWAARGFGSLPCILNACSGDAKSTSCINLSVTDAGGSAQRPRPRVLLKAPTLAEMEEMNTSEEEESPCGEVTLKRDRSFSEHDLAQLRSEVASGLQSATHPPGGTEPPRPRAGSAHVWRPGSRDQGTCPASVSDPSHPLLSNRGSSGDRPEASMTPDAKHLWLEFSHPVESLALTVEEVMDVRRVLVKAEMEKFLQNKELFSSLKKGKICCCCRAKFPLFSWPPSCLFCKRAVCTSCSIKMKMPSKKFGHIPVYTLGFESPQRVSAAKTAPIQRRDIFQSLQGPQWQSVEEAFPHIYSHGCVLKDVCSECTSFVADVVRSSRKSVDVLNTTPRRSRQTQSLYIPNTRTLDFK
Regarding B2, in experiment [8], the binding result was “no binding”.
